Measurements taken from the RNAGym collection of RNA variant scans (doi:10.1073/pnas.2313332121).
Variants at the background level are over-represented here.

B1: TPR 5TU (parent)
chain: GGAUCUUCUCGAUCUAACAAAAAAGACAAAUCUGCCACAAAGCUUGAGAGCAUCUUCGGAUGCAGAGGCGGCAGCCUUCGGUGGCGCGAUAGCGCCAACGUUCUCAACUAUGACACGCAAAACGCGUGCUCCGUUGAAUGGAGUUUAUCAUG

Variants of: B1
Test: polymerase ribozyme fitness, log enrichment relative to wild type (log ratio); higher = more active; in vitro selection for triplet polymerase activity
Summary of the method: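 The heterodimeric triplet polymerase ribozyme's subunits were each mutagenized into PCR-built libraries and transcribed. Every library was selected once, in triplicate, by annealing with a biotinylated primer, the partner subunit and triplets, incubating frozen at −7 °C, gel-excising extended constructs, capturing on streptavidin beads and running RT-PCR. Input and output libraries were Illumina-sequenced, with genotypes kept only at ≥10 input reads and ≥1 read per output. Fitness, from inverse-variance-weighted replicate averages, is the base-2 logarithm of genotype enrichment over wild-type enrichment.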

Variant | polymerase ribozyme fitness (log ratio)
C5G G83U A98U C105U | -1.03
U4C C35U A47C U78G G136C | ≤ -4.2
U4C G58C G84A G126C G133C A138U | ≤ -4.2
C5A C54U A91C G92U C105U G133U | ≤ -4.2
C5A C79A G88A A106C | ≤ -4.2
U4C C5A A24G A28C C54U G84U A138C | ≤ -4.2
U4C A23G C85U A98U G117A A119U G141U | ≤ -4.2
C5U A24C C32G G34U C35U G67C A73U C76U U77G A91U G94A G117C G133A C149G | ≤ -4.2
C5G A30C G42A C57G A64U C76U G84U C96U A122G U127C G133C | ≤ -4.2
U4A G11A A26C A60G G84U G126U C149G | ≤ -4.2
C5U C43G U53A A60U C87A C99A A121U | ≤ -4.2
U4C C18U G34A A40C C85U | ≤ -4.2
C5U A23U C32U G74U G83A C114U G136U C149U | ≤ -4.2
U4G A41C G48C A60U A97G A107U | ≤ -4.2
U4C A30U A73U C105G U144A | ≤ -4.2
U4A A19U A24U C35A C57G A60C U101G | ≤ -4.2
U4G A20U A24U G94C C99G G128U | ≤ -4.2
C5A A40C G74A G80C C85G G128U A138U | ≤ -4.2
C5A A16G A40C U45G A47C C51U A97G C99U U127G | ≤ -4.2
C5G G84A | -0.0388
U4G A19U A40C A73U C85G A91C | ≤ -4.2

Variant | polymerase ribozyme fitness (log ratio)
C5G A19C A23U A41G C76G G92A U127G U139G | ≤ -4.2
U4C U15A A26U A49C A52C C85A G141A G143C | ≤ -4.2
U4A A30G G42U C43G G48A G94A | ≤ -4.2
U4G U45A G80C C87A A91U A142C | ≤ -4.2
U4G C18G A22U C27U U55A C85U G126U U135A | ≤ -4.2
C5A A30U C57G C79G C85G U101G C108G A138C | ≤ -4.2
U4G A29C G34A C76G | ≤ -4.2
U4G U13G A30C U31A G50U C95U C103A C105U | ≤ -4.2
C5A C8A A28U C75G C93G A107U C116A | ≤ -4.2
U4C U56A C79A C85U A89C A98G A115C G143A | ≤ -4.2
U4C C85U C93U C105A A107U A150G | ≤ -4.2
U4A C103A | -2.38
U4C C8U A24U C27A A29U C79A G86A U109A U127A | ≤ -4.2
U4C U9A A20G U61G G68A A73U C93A C95G C103A U151G | ≤ -4.2
C5A A16U C35A C95U | ≤ -4.2
U4G A28U A52C A60C U61G G70C C85G U134A U144A | ≤ -4.2
C5A A37U A39C G94U | ≤ -4.2
C5G G11C U13G A24C G58C C79U C87G | ≤ -4.2
C5G A29U A52C C76G C95G C96G C108G A150G | ≤ -4.2
C5G U6G A28U A39C C85U A107C A122C C132A | ≤ -4.2
C5G A40C G71A C85A A142C A150C | ≤ -4.2

Variant | polymerase ribozyme fitness (log ratio)
C5A C36G A52G G84U A89C A106U U144G | ≤ -4.2
C5G A19C G42U C79U C105U G126U | ≤ -4.2
U4G U56A C79U G83A | ≤ -4.2
C5G U31C A60U G83U A91C C99U C132U | ≤ -4.2
U4G U33A U53A C85G A89U | ≤ -4.2
C5G A12C A29U C35A A47C U53C G59U A91G G124A G140A | ≤ -4.2
U4C C10U U56G A60U G92U | -3.76
U4G A12G A17G C93U G141C | -3.94
U4A A16U A26U A41C C54A C79G C96A U111C | ≤ -4.2
C5U C76G G83U U90A G128U U135G | ≤ -4.2
C5U A12U C18G G70C G80A C93G C95U A98G U144G | ≤ -4.2
C5G G84A G128A C132A | ≤ -4.2
C5G A16U A29C C57A G62A G74U C95U U134G G152A | ≤ -4.2
U4A G58A C76G G80U C118A | ≤ -4.2
C5G U9C A16C A28G A30U C32G C35A G59U G92U C105U G143C | ≤ -4.2
U4C C14G A39C G81A U90G C96A G140A A142G | ≤ -4.2
C5A A22U A40G A91C G92A C123U | ≤ -4.2
C5A A47C G88U | ≤ -4.2
C5A C8G A40C A49G G84U C95G | ≤ -4.2
C5G G59U C95U C103G A110C C123U U127A G152C | ≤ -4.2
C5G C54U G84A U127G | ≤ -4.2

Variant | polymerase ribozyme fitness (log ratio)
U4G G25U A30U A39U U55A U109C U130G | ≤ -4.2
C5G G48C G62C A97U G141U | ≤ -4.2
U4G A26U A66U G83A G88C A110C A121C G126A | ≤ -4.2
C5G A37U C38U A66C C75A U77A U90A C93U A113C | ≤ -4.2
C5G A12U U55G G71A C87U C95A C99U U144A | ≤ -4.2
U4A G34U A60G G71C G141C | ≤ -4.2
C5G C54A A91C | ≤ -4.2
C5A A17U C18G C27A A47C G86U A89U U111A A113C | ≤ -4.2
C5A A37C C95U C96G U102G C108U | ≤ -4.2
C5G A23G G50C A52C C69G A119G | ≤ -4.2
C5A A16U A24U C35A U56A C85G U109G U144C | ≤ -4.2
C5G U7A U56A A91C A106G C125A G136A U145A | ≤ -4.2
C5A G46U C79U C93U U134C | ≤ -4.2
U4G A28G A91G C93U A115U G133A | ≤ -4.2
C5G U55G G83U U101C | -2.49
U4C C57U A66C C87U | ≤ -4.2
C5G A28U A98U C99G U104A | ≤ -4.2
C5U C51U G84A A150G | -2.47
C5U C10U G88A C103G A137C | ≤ -4.2
C5G A37C G81A | -1.37
C5U A49C G81U C93G | ≤ -4.2
